Assay results: PubChem BioAssay AID485344 (National Center for Advancing Translational Sciences (NCATS), 2010)
The whole screen tested about 340,000 compounds, of which about 6,900 (2%) were called active. Cut-off read from the data, not from the text of the source: active = inhibition above about 30%; inactive = below that, where a call was filed. The entries are a selection whose mix differs from that of the whole data set. Entries without a call were filed so in the source.
Note: 0% is about no effect.

What follows are compounds tested against D(2) dopamine receptor (Homo sapiens) (UniProt P14416) (assay: HTS Assay for Allosteric Antagonists of the Human D2 Dopamine Receptor: Primary Screen for Antagonists). Conditions: HEK293 TREx D2 cells, calcium flux, dopamine EC80; at 10 µM; stronger effect = higher value.
Sequence of UniProt P14416 (P14416 whole entry, looked up): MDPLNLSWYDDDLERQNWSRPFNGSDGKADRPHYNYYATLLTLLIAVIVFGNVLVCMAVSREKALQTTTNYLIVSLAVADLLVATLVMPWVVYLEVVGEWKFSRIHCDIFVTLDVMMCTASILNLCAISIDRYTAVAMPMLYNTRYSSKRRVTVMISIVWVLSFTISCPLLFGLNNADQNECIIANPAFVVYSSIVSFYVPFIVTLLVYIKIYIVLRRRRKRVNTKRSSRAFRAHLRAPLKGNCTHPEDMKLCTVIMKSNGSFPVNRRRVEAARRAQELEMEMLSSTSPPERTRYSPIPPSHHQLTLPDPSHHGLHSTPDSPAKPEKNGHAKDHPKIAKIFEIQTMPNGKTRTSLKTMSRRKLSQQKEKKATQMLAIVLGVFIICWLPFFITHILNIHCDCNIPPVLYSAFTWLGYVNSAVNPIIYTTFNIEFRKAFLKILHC
Outline: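 Tetracycline-induced HEK293 TREx cells expressing D2 receptor forced-coupled to calcium signalling, loaded with no-wash calcium dye. Compounds added and calcium flux read 180 s, then dopamine added at EC80 and read a further 180 s.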
`CCOC(=O)C1CCCN(C(=O)c2nn(-c3ccc(OC)cc3)c(=O)c3c2c2ccccc2n3C)C1` (stereo not given) showed an inhibition of -12.4%.
With `CC(=O)OC(C)CS(=O)(=O)c1ccccc1` (stereo not given) the inhibition was active: 30.2%.
`CCc1cccc(NC(=O)C2CCN(C(=O)c3cnn(-c4ccccc4)c3-n3cccc3)CC2)c1` showed an inhibition of 6.82%.
Work on `Nc1nc(Nc2ccccc2F)sc1C(=O)c1ccc(Cl)cc1` yielded an inhibition of 4.62%.
In the case of `O=C(c1ccccc1Cl)N1c2ncnn2C2(CCCCC2)[C@@H]2CCCC[C@@H]21`, the inhibition is reported as 27.2%.
With `COC(=O)c1ccc(OCC2c3cc(OC)c(OC)cc3CCN2C(=O)COc2ccc(Cl)cc2)cc1` (stereo not given) the inhibition was 15.1%.
In the case of `CN(C1=NC(=O)C(CC(=O)Nc2ccc(Br)cc2)S1)c1ccc(O)cc1` (stereo not given), the inhibition is reported as active: 40.4%.
`COc1ccc(Cc2nc3ccccc3[nH]c2=O)cc1` showed an inhibition of -5.59%.
`CCOC(=O)c1c(NC(=O)OC)sc(C(=O)N(C)C)c1C` was tested, and the inhibition was active: 69.4%.
`C=Cc1ccc(Cn2c(C)c(CNCc3cccc(Br)c3)c(C(=O)O)c2C)cc1` gave an inhibition of 15.3%.
Work on `Cc1cccc(Cn2c(CNS(=O)(=O)c3ccc4c(c3)CCCC4)nc3cccnc32)c1` yielded an inhibition of 3.5%.
`Cc1c(Cl)cccc1-c1ccc(C(=O)Nc2ccc(F)cc2)o1` gave an inhibition of 6.99%.
In the case of `COc1ccc(OC)c(-c2nnc3n(Cc4ccc(C)cc4)c(=O)c4ccccc4n23)c1`, the inhibition is reported as 4.76%.
Compound `CCN(CC)C(=O)CSc1nc(-c2ccccc2F)nc2c1Cc1c(CO)cnc(C)c1O2` has an inhibition of -2.87%.
With `CC(C)(C)OC(=O)N1CCC(c2c(C(=O)N3CCCCC3)cnn2-c2ccc(Cl)cc2)CC1` the inhibition was -1.15%.
Work on `CCOc1cc(C(=O)NCCc2csc3nc(-c4ccc(C)cc4)nn23)cc(OCC)c1OCC` yielded an inhibition of 0.0618%.
With `NC(=O)CC(NC(=O)Cc1cccc2ccccc12)c1ccc(NC2CCN(Cc3ccccc3)CC2)c([N+](=O)[O-])c1` (stereo not given) the inhibition was active: 32.1%.
`Cc1ccc2oc3c(c(=O)c2c1)C(c1ccc(F)cc1)N(Cc1ccc2c(c1)OCO2)C3=O` (stereo not given) showed an inhibition of -5.77%.
Compound `COc1ccccc1CCNC(=O)C(=O)NCC(c1ccc2c(c1)OCO2)N1CCOCC1` (stereo not given) has an inhibition of 1.47%.
Work on `CC(=O)c1cccc(NC(=O)c2sc(-n3nc(C)c(Cc4ccc5c(c4)OCO5)c3C)nc2C)c1` yielded an inhibition of 1.87%.
`COc1ccccc1OCC(=O)NCC(c1ccc(Cl)cc1)N1CCCCC1` (stereo not given) was tested, and the inhibition was 20.9%.
Compound `CCN(C(=O)C1CCN(S(=O)(=O)c2ccc3c(c2)CCCN3C(C)=O)CC1)c1cccc(C)c1` has an inhibition of -14.3%.
`Cc1c(Cl)cccc1NC(=O)Cn1c(CCC(=O)O)ccc1-c1cccs1` showed an inhibition of 16.1%.
`CCOC(=O)c1c(NC(C)=O)c2c3c(sc2n1Cc1nc(-c2cccc(Cl)c2)oc1C)CCCC3` showed an inhibition of 4.95%.
For `COc1ccc2c(c1)CCc1c(C(=O)Nc3c(C)nn(Cc4ccc(Cl)cc4)c3C)noc1-2`, the inhibition was 16.9%.
`CNS(=O)(=O)c1ccc(C(C)(C)C)cc1` was tested, and the inhibition was active: 64.7%.
`O=C(O)CCC(=O)N1CCc2cc(S(=O)(=O)N3CCC(Cc4ccccc4)CC3)ccc21` was tested, and the inhibition was active: 34%.
`Cc1cccc(C)c1NC(=O)CCS(=O)(=O)c1ccc2c(c1)CC(C)N2C(=O)C1CC1` (stereo not given) gave an inhibition of -14.9%.
Compound `CCOc1ccc(NC(=O)Cn2nnc(C(=O)NCc3cccs3)c2N)cc1` has an inhibition of 23.4%.
Compound `COc1ccc(/C=C\c2onc(C)c2S(=O)(=O)N2CCC(C(=O)Nc3cccc(C)c3C)CC2)cc1` has an inhibition of 0.37%.
For `O=c1[nH]c2ccc(NCc3ccc(-c4ccc(Cl)cc4)o3)cc2[nH]1`, the inhibition was -19.5%.
Work on `CCOc1ccccc1Nc1nc(-c2ccc(C)cc2)c(CC(=O)O)s1` yielded an inhibition of -6.6%.
Compound `Cc1ccc(NC(=O)CN2C(=O)CC(c3ccc(F)cc3)=Nc3ccccc32)cc1F` has an inhibition of 10.9%.
`COc1ccc(CN(C(=O)Nc2cccc(OC)c2)C2CCN(C(C)=O)CC2)cc1` gave an inhibition of 10.9%.
For `COc1cccc(CNC(=O)CN2C(=O)N(c3c(C)cccc3C)S(=O)(=O)c3ccccc32)c1OC`, the inhibition was -4.28%.
Compound `COc1ccc(C2c3c(oc4ccc(Cl)cc4c3=O)C(=O)N2CCCN(C)C)cc1OC` (stereo not given) has an inhibition of 16.1%.
Compound `COc1ccc(OC)c(NC(=O)C(C)n2nc(C)c3c(C)n(-c4ccccc4)nc3c2=O)c1` (stereo not given) has an inhibition of 0.483%.
`Cc1nc(-n2nc(C)c(Cc3ccc(Cl)cc3)c2C)sc1C(=O)N1CCCCC1C` (stereo not given) showed an inhibition of -9.31%.
In the case of `Cc1ccc(C)c(Cn2c3ccccc3c3cnn(CC(=O)NCC(C)c4ccccc4)c(=O)c32)c1` (stereo not given), the inhibition is reported as 4%.
`O=C(CSCc1ccccc1Cl)NCc1ccc(Cl)c(Cl)c1` gave an inhibition of 0.883%.
With `CCc1nnc(NC(=O)c2ccc(COc3ccc(C)cc3)o2)s1` the inhibition was active: 30.2%.
In the case of `CC1=C(C(=O)OCc2ccc3c(c2)OCO3)C(c2ccccc2)NC(=O)N1` (stereo not given), the inhibition is reported as active: 44.5%.
For `O=C(COC(=O)/C=C/c1ccc(OC(F)F)cc1)NC1CCCC1`, the inhibition was active: 32.2%.
`CC(=O)c1ccc(Nc2nc3ccccc3nc2-n2nc(C)cc2C)cc1` gave an inhibition of 9.29%.
For `CC(=O)c1cccc(NC(=O)Cn2c(=O)oc3cc(S(=O)(=O)NC4CCCC4)ccc32)c1`, the inhibition was -0.264%.
Compound `CC(=O)N1CCN(c2nc3c(C)ccc(Cl)c3s2)CC1` has an inhibition of -25.2%.
For `Oc1c(C(c2ccccc2Cl)N2CCOCC2)sc2nc(-c3ccco3)nn12` (stereo not given), the inhibition was 27%.
`CCC(=O)N1CCc2cc(CNC(=O)Nc3cc(C)ccc3C)ccc21` was tested, and the inhibition was -14.9%.
`C/C=C/c1ccc(OCCCCN2CC(C)CC(C)C2)c(OC)c1` (stereo not given) was tested, and the inhibition was active: 38%.
In the case of `Cc1ccc(-c2nnc(Nc3ccc(Cl)c(Cl)c3)c3ccccc23)cc1S(=O)(=O)N(C)C`, the inhibition is reported as 12.3%.
In the case of `COc1ccc(CCNS(=O)(=O)c2ccc(F)c(C(=O)Nc3ccc(Cl)cc3)c2)cc1OC`, the inhibition is reported as -21.5%.
`Cc1cc(C)cc(NC(=O)c2ccc3c(O)c(S(=O)(=O)c4ccccc4)c(=O)[nH]c3c2)c1` gave an inhibition of -3.08%.
For `O=C(Cc1c(F)cccc1Cl)Nc1cccc(S(=O)(=O)NC2=NCCCCC2)c1`, the inhibition was active: 31.1%.
`COc1cc(Cl)c(C)cc1NC(=O)c1ccc(CN2C(=O)CCn3nc(C)cc32)cc1` showed an inhibition of -6.23%.
Work on `Cc1c(Cl)cccc1NC(=O)CSc1ncc(S(=O)(=O)c2ccc(C(C)C)cc2)c(=O)[nH]1` yielded an inhibition of 7.35%.
`CCCCOC(=O)c1ccc(NC(=O)Cc2coc3c(C)c(C)ccc23)cc1` was tested, and the inhibition was -5.12%.
With `CCC1(C)N=C(N)Nc2nc3cc(C)c(C)cc3n21` (stereo not given) the inhibition was active: 35.4%.
`CCOC(=O)c1c(C)[nH]c(C)c1S(=O)(=O)N1CCCC(C(=O)Nc2ccc(C)c(N(C)C)c2)C1` (stereo not given) showed an inhibition of 0.563%.
`CCNC(=O)C1CCCN(c2nnc(C)c3c(C)n(-c4ccc(C)cc4)nc23)C1` (stereo not given) gave an inhibition of -7.6%.
Compound `Cc1ccc(OCC(=O)N(Cc2ccco2)c2ccccn2)cc1` has an inhibition of -12.3%.
Compound `CCc1ccccc1NC(=O)Cc1cn(C)c2ccccc12` has an inhibition of 16.3%.
`O=C(Nc1c(O)c2ccccc2oc1=O)c1cccc(F)c1` was tested, and the inhibition was -2.91%.
For `Cc1ccc(Nc2ncnc3onc(C)c23)cc1Cl`, the inhibition was 6.76%.
`CCOc1ccc(S(=O)(=O)Nc2cccc(C)c2)c2cccnc12` gave an inhibition of -3.84%.
`CCn1cc(C(=O)N2CCN(c3ccccc3)CC2)c(=O)c2cc(S(=O)(=O)N3CCCC3)ccc21` gave an inhibition of 7.65%.
In the case of `O=C(Cn1c(=O)nc(-c2ccccc2F)c2cc(Cl)ccc21)Nc1ccccc1C(F)(F)F`, the inhibition is reported as 7.65%.
For `Cc1ccc(-c2nc3nc(C)cc(N4CCN(c5cccc(C)c5)C(C)C4)n3n2)cc1` (stereo not given), the inhibition was 2.11%.
`COc1cc2oc(=O)c(CC(=O)NCCc3ccccc3F)c(C)c2cc1OC` gave an inhibition of 3.54%.
`O=C(NCc1cccs1)c1nn(-c2ccccc2F)nc1CO` was tested, and the inhibition was -7.3%.
`CCCCNC(=O)Cn1ncc2c(C)n(Cc3cccc(Cl)c3)c(C)c2c1=O` showed an inhibition of 9.57%.
With `CCCCN(C)CCCNC(=O)CN1C(=O)CSc2ccc(S(=O)(=O)N3CCOCC3)cc21` the inhibition was 3.06%.
`COc1ccc(-c2nn(CC(=O)NCc3ccccc3)c3c2cnc2ccc(F)cc23)cc1` gave an inhibition of 3.83%.
`COc1c(O)ccc2c1CN1CCc3cc4c(cc3C1C2)OCO4` (stereo not given) was tested, and the inhibition was active: 74.1%.
With `COc1ccccc1C(=O)N1c2ccccc2C(C)(c2ccc(Cl)cc2)CC1(C)C` (stereo not given) the inhibition was -3.79%.
With `Oc1c(Cl)cc(Cl)c2c1NCCC2` the inhibition was active: 39.2%.
For `COC(=O)CSc1nc2sc3c(c2c(=O)n1Cc1ccccc1)CCC(C(C)(C)C)C3` (stereo not given), the inhibition was 4.06%.
Compound `CCc1ccc(CNC(=O)c2nn(-c3ccc(OC)c(Cl)c3)c(=O)c3c2c2ccccc2n3C)cc1` has an inhibition of -14.4%.
For `COc1ccc(-c2c3c(nc4sc(C(=O)Nc5ccccc5F)c(N)c24)CC(C)(C)CC3=O)cc1`, the inhibition was 17.4%.
`CCN(Cc1ccccc1)C(=O)CN1C(=O)CSc2ccc(S(=O)(=O)N(CC)CC)cc21` showed an inhibition of -3.85%.
`O=C(Nc1ccc(S(=O)(=O)N2CCCCC2c2cccnc2)cc1)c1ccc(F)cc1` (stereo not given) gave an inhibition of 5.76%.
Work on `COc1ccc(NC(=O)c2cc(S(=O)(=O)N3CCCCC3)cn2C)cc1Cl` yielded an inhibition of 16.2%.
Work on `CCCC(CCC)C(=O)Nc1nnc2n1CCS2` yielded an inhibition of 8.82%.
In the case of `CCc1nnc2c3ccccc3nc(Nc3ccc(F)c(Cl)c3)n12`, the inhibition is reported as -7.06%.
With `O=C(Nc1ccc(Cl)cc1)c1cc2c(Cl)nc3ccccc3c2s1` the inhibition was 20.7%.
Work on `Cc1cccc(N(C)C(=O)c2cc(S(=O)(=O)N3CCCCC3)c[nH]2)c1` yielded an inhibition of 2.08%.
In the case of `CN(C)c1ccc(-c2noc(C3CC(=O)N(c4ccc5c(c4)OCCO5)C3)n2)cc1` (stereo not given), the inhibition is reported as 12.6%.
Work on `CCc1ccc(S(=O)(=O)c2nnn3c2nc(NCc2cccc(OC)c2)c2cc(Cl)ccc23)cc1` yielded an inhibition of 6.14%.
For `COc1ccccc1CNC(=O)c1ccc2c(c1)nnn2C1CCCC1`, the inhibition was -1.17%.
For `Cc1ccc(NC(=O)N2CCN3CCCCC3C2)cc1F` (stereo not given), the inhibition was -2.78%.
`Cc1ccsc1CN(C(=O)c1ccc(Br)cc1)C1CCS(=O)(=O)C1` (stereo not given) gave an inhibition of -0.457%.
`O=C(Nc1cccc(-c2nc3ccccc3[nH]2)c1)c1ccccc1F` was tested, and the inhibition was 9.07%.
In the case of `COc1ccccc1NC(=O)Cn1cc(C(=O)c2ccncc2)c(=O)c2cc(C)ccc21`, the inhibition is reported as 7.72%.
Compound `Cc1cc(=O)[nH]c2nnc(SCC(=O)Nc3ccc(F)cc3F)n12` has an inhibition of 16.9%.
Work on `COc1ccc(Cl)cc1NC(=O)C1CCN(S(=O)(=O)c2ccc3c(c2)CCCN3C(=O)C2CCC2)CC1` yielded an inhibition of 23%.
`C=CCc1ccccc1OCCn1c(C2CC(=O)N(Cc3ccc(F)cc3)C2)nc2ccccc21` (stereo not given) showed an inhibition of 24.9%.
